Experimental data: the supplement of paper PMC10126150
Values marked as one replicate rest on one cluster of the flow cell; about a third of the high ones do not repeat.

system: ATP; test: switch fluorescence ratio, 500 uM ATP over buffer (Cy3 cluster intensity, sum of 5 cycles each) (fold (ratio)); higher = stronger signal-on switching upon ATP binding; sequences stand for … in TCGTCGGCAGCGTCAGATGTGTATAAGAGACAGTTTTTTTTTTTTTTTTTTTTTTTTT…TC; settings: aptamer strand: ATP DNA aptamer (quencher-CACCTGGGGGAGTATTGCGGAGGAAGG + anchor), 100 nM annealed; ATP concentration: 500 uM; one replicate
In short: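 For every switch-domain sequence, the fluorescence ratio is the mean of per-cluster values, each being summed target-cycle Cy3 intensity over summed buffer-cycle Cy3 intensity. Clusters outside 100-1000 RFU were excluded. On a modified Illumina MiSeq flow-cell, the Cy3-labelled switching-strand clusters were annealed to 100 nM quencher-labelled ATP aptamer, imaged in selection buffer and then after 15 min with 500 uM ATP at 22 °C. Five such cycles were run, with NaOH stripping and re-annealing between them.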
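Note: ATP exposure 15 min at 22 °C before imaging.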

| Sequence | switch fluorescence ratio |
| --- | --- |
| ACATTTTGGA | 0.961 |
| ACCAAGCATG | 1.01 |
| ACCAATCAGG | 0.988 |
| ACCAATCTTA | 0.954 |
| ACCACAGTGT | 1.4 |
| ACCACCACAG | 1.28 |
| ACCACCAGCG | 2.24 |
| ACCACCGTGA | 1.24 |
| ACCACGTAGT | 0.996 |
| ACCACTAAGG | 1.06 |
| ACCACTATCG | 1.05 |
| ACCACTCCTG | 1.07 |
| ACCACTCGGG | 1 |
| ACCACTTAAG | 1.04 |
| ACCAGAACTT | 1.01 |
| ACCAGATAAC | 1.04 |
| ACCAGCGGGT | 1.04 |
| ACCAGGCACA | 1.12 |
| ACCAGGCTAT | 1.05 |
| ACCAGGCTCC | 1.35 |
| ACCAGGGCTC | 1.08 |
| ACCAGGTACC | 0.975 |
| ACCAGTCGGC | 0.961 |
| ACCAGTGCGA | 1.06 |
| ACCATAGACT | 1.07 |

| Sequence | switch fluorescence ratio |
| --- | --- |
| ACCATAGGGC | 1.01 |
| ACCATCAATG | 1.02 |
| ACCATGCGCA | 1.04 |
| ACCATGGCAA | 1.02 |
| ACCATTCGTC | 1.01 |
| ACCCAAAGA | 1.08 |
| ACCCACGGGT | 1.29 |
| ACCCACTTGC | 1.41 |
| ACCCAGCGGC | 1.13 |
| ACCCATTATT | 1.03 |
| ACCCCACTAT | 1.25 |
| ACCCCGATCA | 1.12 |
| ACCCCGGTTG | 1.06 |
| ACCCGAATCA | 0.996 |
| ACCCGATGCC | 1.16 |
| ACCCGATGCG | 1.06 |
| ACCCGGCCAT | 1.06 |
| ACCCGGGGAA | 1.37 |
| ACCCGGGGTA | 1.02 |
| ACCCGGTATT | 0.982 |
| ACCCGTGCGG | 0.964 |
| ACCCTTACCC | 1.43 |
| ACCGAAGAGG | 1.03 |
| ACCGAAGTTT | 1.25 |
| ACCGAATTGA | 1.03 |

| Sequence | switch fluorescence ratio |
| --- | --- |
| ACCGAGCTAG | 1.13 |
| ACCGATCTTG | 0.972 |
| ACCGCATCTG | 1.19 |
| ACCGCTCT | 1.03 |
| ACCGGACCGC | 1.76 |
| ACCGGAGCCG | 1.23 |
| ACCGGCACTT | 1.16 |
| ACCGGCAGCG | 1.1 |
| ACCGGCATTT | 1.08 |
| ACCGGCTACT | 1.09 |
| ACCGGGAGAG | 1.02 |
| ACCGGGATAG | 1.31 |
| ACCGGGCACG | 1.04 |
| ACCGGTAAGA | 1.03 |
| ACCGGTCATA | 0.996 |
| ACCGGTCTTA | 1.01 |
| ACCGTAGCTC | 2.9 |
| ACCGTCCCCT | 1.09 |
| ACCGTCCGTG | 1.08 |
| ACCGTGGCAC | 1.06 |
| ACCGTGTGGA | 0.997 |
| ACCGTTAGTT | 1.01 |
| ACCGTTTACG | 1.01 |
| ACCGTTTCAA | 1.03 |
| ACCTAAAACG | 1.05 |

| Sequence | switch fluorescence ratio |
| --- | --- |
| ACCTAGAGGA | 1.01 |
| ACCTAGGTG | 3.14 |
| ACCTAGTGAG | 1.04 |
| ACCTATGATC | 1.06 |
| ACCTCACATA | 1.23 |
| ACCTCAGTAG | 1.13 |
| ACCTCCCTTC | 1.82 |
| ACCTCGTGGG | 1.01 |
| ACCTCTTTTG | 1.03 |
| ACCTGATAGC | 1.03 |
| ACCTGCCCTT | 1.11 |
| ACCTGCTATA | 1.23 |
| ACCTGTTGGA | 0.977 |
| ACCTTACAGC | 1.51 |
| ACCTTAGACG | 1.12 |
| ACCTTAGCAG | 1.02 |
| ACCTTCGAAA | 2.9 |
| ACCTTGCATG | 1.02 |
| ACCTTGGGTA | 0.993 |
| ACGAAAACGT | 1 |
| ACGAAACCAT | 1.22 |
| ACGAAATTCT | 1.13 |
| ACGAACTGCG | 1.2 |
| ACGAAGAGAA | 0.984 |
| ACGAAGTGGT | 1.02 |

| Sequence | switch fluorescence ratio |
| --- | --- |
| ACGACAGACT | 1.26 |
| ACGACAGCGA | 2.63 |
| ACGACGTCA | 1.24 |
| ACGACGTGTG | 0.981 |
| ACGACGTTCT | 0.985 |
| ACGACTTTCA | 1 |
| ACGAGCACGC | 1.14 |
| ACGAGGCTGT | 1.39 |
| ACGAGTCCGG | 1.65 |
| ACGATAATGG | 1.03 |
| ACGATACAG | 1.34 |
| ACGATAGGCA | 1.06 |
| ACGATCATA | 0.982 |
| ACGATCTGGT | 0.997 |
| ACGATGGGGG | 1.07 |
| ACGATGTGTC | 1.03 |
| ACGATTTCCG | 0.938 |
| ACGCAGGGGC | 1.11 |
| ACGCAGTCCT | 1.06 |
| ACGCATTTAA | 1.34 |
| ACGCCAACGG | 0.984 |
| ACGCCACCCT | 1.62 |
| ACGCCCAGTA | 1.05 |
| ACGCCCAGTT | 1.06 |
| ACGCCCATAT | 1.28 |

| Sequence | switch fluorescence ratio |
| --- | --- |
| ACGCCCGTGT | 0.992 |
| ACGCCGAGAT | 1.11 |
| ACGCCGCTCT | 1.13 |
| ACGCCGGGCC | 1.03 |
| ACGCGAACGT | 1.03 |
| ACGCGACTTG | 1.02 |
| ACGCGATAGT | 1.23 |
| ACGCGCGTTG | 1.05 |
| ACGCGCTGAC | 1.24 |
| ACGCGGAGC | 1 |
| ACGCGGGTGT | 1.05 |
| ACGCGTAGGC | 1.09 |
| ACGCGTCAT | 0.968 |
| ACGCGTGGAG | 1.07 |
| ACGCGTGTAG | 1.03 |
| ACGCTAGTGG | 1.03 |
| ACGCTCAACT | 1.18 |
| ACGCTTATGG | 1.12 |
| ACGGAACTAG | 1.17 |
| ACGGAAGTGA | 1.03 |
| ACGGAATGGA | 1.13 |
| ACGGACGGTC | 0.933 |
| ACGGACTCCA | 1.33 |
| ACGGAGAAGT | 1.1 |
| ACGGAGGTAA | 1.03 |

| Sequence | switch fluorescence ratio |
| --- | --- |
| ACGGATCGGA | 0.995 |
| ACGGCACTTT | 1.44 |
| ACGGCCCAAG | 1.06 |
| ACGGCTAAC | 1.15 |
| ACGGCTTGGC | 1.04 |
| ACGGGAGGTT | 1.09 |
| ACGGGATGGC | 1.06 |
| ACGGGCCTTT | 0.968 |
| ACGGGGGCAA | 1.57 |
| ACGGGTCCTG | 1.02 |
| ACGGGTCGCC | 0.979 |
| ACGGGTTTCT | 0.995 |
| ACGGTACCA | 1.48 |
| ACGGTAGCAT | 1.06 |
| ACGGTAGCG | 1.11 |
| ACGGTATTTA | 1.09 |
| ACGGTCAATT | 1.04 |
| ACGGTCGCGC | 0.969 |
| ACGGTGCCGG | 1.01 |
| ACGGTGGTTG | 1.01 |
| ACGGTTACAC | 1.24 |
| ACGGTTCAGT | 0.996 |
| ACGGTTCATT | 1.05 |
| ACGGTTGGAT | 1.04 |
| ACGTAAGGCT | 1.12 |

| Sequence | switch fluorescence ratio |
| --- | --- |
| ACGTAGAGTC | 1.11 |
| ACGTAGGCGT | 1.03 |
| ACGTAGTTAT | 1.02 |
| ACGTATTGTA | 1.05 |
| ACGTCATGTG | 1.07 |
| ACGTCGAACT | 1.04 |
| ACGTCGGGGA | 0.998 |
| ACGTCGTTG | 0.971 |
| ACGTCTAAGA | 1.01 |
| ACGTCTATGA | 1.05 |
| ACGTGACAAG | 1.17 |
| ACGTGAGAA | 1.05 |
| ACGTGATATG | 1.05 |
| ACGTGCCGAA | 0.977 |
| ACGTGCGCGC | 0.998 |
| ACGTGGGTGG | 1.1 |
| ACGTGTGGAG | 1.07 |
| ACGTTAGTTC | 1.01 |
| ACGTTATAA | 1.44 |
| ACGTTCTGTG | 1.04 |
| ACGTTTATAA | 1.06 |
| ACTAAGCGAT | 1.64 |
| ACTAAGCGGA | 1.07 |
| ACTAAGGCGC | 0.993 |
| ACTAAGGTAT | 1.05 |
